The whole screen tested about 310,000 compounds, of which about 14,000 (4.5%) showed an effect of 50% or more. The effect is printed as a negative number. This is one part of the list.
Target: human ether-à-go-go-related gene (hERG) potassium channel (human, UniProt Q12809)
Assay: primary screen, population patch clamp on CHO cells stably expressing hERG
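Further: peak tail current of the secondary pulse compared with the same well before compound.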

Sequence of human ether-à-go-go-related gene (hERG) potassium channel (Q12809 whole entry, looked up): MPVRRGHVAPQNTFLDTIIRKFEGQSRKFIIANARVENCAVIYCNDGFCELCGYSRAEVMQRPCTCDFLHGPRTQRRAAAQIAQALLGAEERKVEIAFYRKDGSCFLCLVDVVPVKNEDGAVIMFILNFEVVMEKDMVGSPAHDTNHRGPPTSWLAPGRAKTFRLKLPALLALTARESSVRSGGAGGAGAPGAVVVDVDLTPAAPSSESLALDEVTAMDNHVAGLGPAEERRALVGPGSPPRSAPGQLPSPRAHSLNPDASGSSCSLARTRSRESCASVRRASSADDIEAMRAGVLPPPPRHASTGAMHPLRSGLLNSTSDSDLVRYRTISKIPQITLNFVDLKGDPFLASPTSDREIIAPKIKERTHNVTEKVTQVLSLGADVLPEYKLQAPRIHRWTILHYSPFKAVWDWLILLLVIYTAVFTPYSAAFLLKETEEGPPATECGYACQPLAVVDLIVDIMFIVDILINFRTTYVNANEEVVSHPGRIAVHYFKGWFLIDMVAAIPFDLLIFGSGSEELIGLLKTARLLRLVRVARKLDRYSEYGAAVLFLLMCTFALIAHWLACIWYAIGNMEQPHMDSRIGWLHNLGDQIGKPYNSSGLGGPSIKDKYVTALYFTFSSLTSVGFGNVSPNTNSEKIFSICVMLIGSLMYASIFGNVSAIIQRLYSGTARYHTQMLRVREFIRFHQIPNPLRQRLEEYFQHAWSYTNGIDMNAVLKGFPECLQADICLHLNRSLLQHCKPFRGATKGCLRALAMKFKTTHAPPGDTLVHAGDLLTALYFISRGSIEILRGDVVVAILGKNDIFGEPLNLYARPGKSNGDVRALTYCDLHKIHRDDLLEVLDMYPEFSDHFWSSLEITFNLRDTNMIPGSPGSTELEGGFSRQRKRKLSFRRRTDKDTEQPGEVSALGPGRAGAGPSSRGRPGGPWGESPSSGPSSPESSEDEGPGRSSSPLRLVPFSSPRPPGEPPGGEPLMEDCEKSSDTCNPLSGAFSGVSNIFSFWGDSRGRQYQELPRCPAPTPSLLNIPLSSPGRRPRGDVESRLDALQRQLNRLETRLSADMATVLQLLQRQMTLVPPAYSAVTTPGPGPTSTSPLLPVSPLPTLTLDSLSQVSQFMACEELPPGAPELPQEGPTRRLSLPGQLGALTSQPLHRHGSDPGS

Compound | hERG current change (%, negative = inhibition) at 10uM [%]
O=C1CCCc2nc3c(cc21)C(O)Oc1ccccc1-3 (stereo not drawn) | -3.3
CCCCCCn1c(C(C)O)nc2ccccc21 (stereo not drawn) | -18.4
CCN(CC)S(=O)(=O)c1ccc(-c2nnc(SCC(N)=O)n2CC)cc1 | 35.8
CC12CNCC(C)(CN(C3(O)C(=O)Nc4ccc(Br)cc43)C1)C2=O (stereo not drawn) | 3.04
C=CCn1c(Br)nc2c1c(=O)[nH]c(=O)n2C | -5.15
O=C(NCc1cccs1)C(=O)NCC1OCCCN1S(=O)(=O)c1ccccc1 (stereo not drawn) | -14.5
CCOc1ccc(C(=O)/C=C/Nc2ccc(S(=O)(=O)Nc3onc(C)c3C)cc2)cc1 | 12
CCCNS(=O)(=O)c1ccc(-n2cnnn2)c(OC)c1 | 5.49
COc1ccc(OCCN2C(=O)NC(C)(c3ccc(C)cc3)C2=O)cc1 (stereo not drawn) | -6.89
O=C(Nc1cccc2cccnc12)c1cccc([N+](=O)[O-])c1 | 10.7
CCn1c(SCC(=O)NC(C)C)nnc1-c1cccs1 | 12.4
O=C1Nc2ccc(Br)cc2C1=C1CCCCC1 | 18
COc1ccc(CN(C(=O)c2oc3ccccc3c2C)C2CCS(=O)(=O)C2)cc1 (stereo not drawn) | -31.5
O=C(COc1ccccc1)N(Cc1ccco1)c1ccc(O)cc1 | -3.88
Cc1cccc(NS(=O)(=O)c2ccc([N+](=O)[O-])cc2)n1 | -15.2
Cc1cc(/C=C2/SC(=S)N(c3ccc([N+](=O)[O-])cc3)C2=O)c(C)n1-c1cccnc1 | 15.5
[O-]/[N+](=C/c1ccc(F)cc1)c1ccc(Cl)cc1 | 5.77
Cc1ccc(-n2c(Cc3cccn3C)nnc2SCC(=O)Nc2ccc3c(c2)OCO3)cc1 | -23.8
O=C(CCC(=O)c1ccccc1)NCCc1c[nH]c2ccccc12 | -0.0564

Compound | hERG current change (%, negative = inhibition) at 10uM [%]
CCOC(=O)CN1C(=N)N(c2nc(NC(C)C)nc(OC)n2)CC1=O | -13.1
O=S(=O)(c1ccccc1)N1CCN(c2nnnn2-c2ccccc2)CC1 | -3.96
O=S(=O)(c1ccccc1OC(F)(F)F)N1CCN(c2ccnc3cc(Cl)ccc23)CC1 | -18.4
CC(C(=O)c1ccccc1)[n+]1cccc(Br)c1.[Br-] (stereo not drawn) | -1.52
CC(C)(C)C(=O)Nc1ccc(F)cc1[N+](=O)[O-] | 5.56
Cl.N=c1ccn(Cc2ccc(Cl)cc2)cc1 | -2.86
CSc1cccc(NC(=O)CC2Oc3ccccc3NC2=O)c1 (stereo not drawn) | 6.18
Cc1cc(=O)n2nc(N3CCC(C(=O)N4CCN(C)CC4)CC3)sc2n1 | 17.5
Oc1cccc2ccc(Nc3ccccn3)nc12 | -53.6
CCc1ccc(NC(=O)CSc2nnc(CNC(=O)c3cccs3)o2)cc1 | -3.67
CCCCNC(=O)Cn1c(=O)n(C)c2ccccc21 | 17.3
O=C(N1CCOCC1)N1CCC(c2nc(-c3ccc(S(=O)(=O)N4CCOCC4)cc3)no2)CC1 | -2.07
COc1ccc(-n2c(SCC(C)=O)nc3sc(C)c(C)c3c2=O)cc1 | 22.1
COc1ccc(CC(=O)NNC(=O)c2ccncc2)cc1 | 29.1
CCCC(C(=O)NC1CCCC1)N(Cc1ccc(OC)cc1)C(=O)c1snc(C(N)=O)c1N (stereo not drawn) | -29.3
CC(C)CN(C(=O)COC(=O)c1ccc(Br)o1)c1c(N)n(Cc2ccccc2)c(=O)[nH]c1=O | 13
O=c1c2cc(NC(=S)N3CCCCC3)ccc2nc2n1CCCCC2 | -55.7
CCN=C1SC(CC(=O)NC2CCCCC2)C(=O)N1CC (stereo not drawn) | 3.06
CCC1=Nc2cc(C(=O)NCCN3CCCC3)ccc2Sc2ccc(C)cc21 | -29

Compound | hERG current change (%, negative = inhibition) at 10uM [%]
COC(=O)C(NC(C)=O)(Nc1nc2ccc(S(C)(=O)=O)cc2s1)C(F)(F)F (stereo not drawn) | 18.2
O=C(CSc1n[nH]c(-c2ccc(S(=O)(=O)NC3CCCCC3)cc2)n1)N1CCCC1 | -11.4
COCCn1nnnc1C(c1cc2c(C)cc(C)cc2[nH]c1=O)N1CCCCCC1 (stereo not drawn) | -0.0829
O=C1CCc2cc(S(=O)(=O)N3CCCCC3)cc3c2N1CC3 | 14.5
Cc1cccc(OCCC(=O)NCC(=O)Nc2c(C)cccc2C)c1 | 6.41
Cc1ccc(C)c(OCCn2cc(C(=O)O)c3ccccc32)c1 | 3.66
COc1ccc(C(=O)CSc2nnc(CNC(=O)c3ccccc3F)n2C)cc1OC | 19.2
Cc1ccc(S(=O)(=O)N(C)c2c(C)ccc(S(=O)(=O)N3CCN(C)CC3)c2C)cc1 | -60.8
COc1ccc(C(=O)OCC[N+]2(C)CCOCC2)cc1.[I-] | 13.6
Oc1c(C(c2cccs2)N2CCN(c3ccc(F)cc3)CC2)sc2ncnn12 (stereo not drawn) | -66
O=c1cc(-c2cccs2)oc2ccc(Cl)cc12 | 4.48
CCN1CCN(Cc2ccc(NC(=O)c3cc(NC(=O)c4cc(-c5ccc(OC)cc5)n[nH]4)cc(OC)c3)cc2C(F)(F)F)CC1 | 11.9
O=C(Nc1ccccc1N1CCOCC1)c1cccnc1 | 15
O=[N+]([O-])c1cc(Cl)c2cccnc2c1O | 4.37
COc1cccc(C2N(c3ccccn3)C(=O)C3CCCN32)c1OC (stereo not drawn) | 12.2
Cc1ccc(COC(=O)c2cccc(S(=O)(=O)N3CCCCCC3)c2)cc1 | -16.4
CCn1nnnc1SCC(=O)c1cc(Cl)ccc1OC | 7.87
O=C(Cc1cccs1)Nc1cc(SCCO)cc([N+](=O)[O-])c1 | -14.9
CCOc1ccc(N2CC(C(=O)Nc3ccccc3C(=O)NC3CC3)CC2=O)cc1 (stereo not drawn) | -76.7

Reference: article PMC4336329 (PLoS ONE, 2015)
